The list shows a part of the results. The list includes weakly bound sequences.
Each sequence was assayed against T1, MBP-FoxP3dN (UniProt Q99JB6) (assay: PD-seq (MBP pull-down with sequencing)). Details: 20 mM Tris-HCl pH 7.5, 100 mM NaCl, 1.5 mM MgCl2, 0.4 uM protein, 0.1 uM dsDNA library, 30 min, room temperature, amylose pull-down; high values mean tight binding; double strand, one strand shown.
T1 sequence: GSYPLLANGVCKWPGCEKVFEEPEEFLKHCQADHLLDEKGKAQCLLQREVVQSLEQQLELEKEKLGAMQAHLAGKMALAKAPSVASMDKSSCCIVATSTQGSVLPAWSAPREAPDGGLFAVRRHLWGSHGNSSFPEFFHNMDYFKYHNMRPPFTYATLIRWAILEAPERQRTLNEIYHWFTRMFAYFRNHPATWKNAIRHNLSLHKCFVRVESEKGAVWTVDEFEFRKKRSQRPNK

Row | Sequence | binding signal (RPM ratio (pull-down/input))
1 | GATGATTGTTCTCCCAGCTGATGAATTGAACCGTTCGAGTAAACAAATTTTCCTAATCTTTCTGTTCAAGCGCCATCTAC | 0.344
2 | GATGATTGTTCTCCCAGCTGATGAATTAGCGAACTCGAGTAAACAAATTTTCCTAATCTTTCTGTTCAAGCGCCATCTAC | 0.248
3 | GATGATTGTTCTCCCAGCTGATGAATTAGATTGTTCGAGTAAACAAATTTTCCTAATCTTTCTGTTCAAGCGCCATCTAC | 3.18
4 | GATGATTGTTCTCCCAGCTGATGAATTCTAAATTTCGAGTAAACAAATTTTCCTAATCTTTCTGTTCAAGCGCCATCTAC | 0.264
5 | GATGATTGTTCTCCCAGCTGATGAATTACGGCCATCGAGTAAACAAATTTTCCTAATCTTTCTGTTCAAGCGCCATCTAC | 1.15
6 | GATGATTGTTCTCCCAGCTGATGAATTCTTGTTATCGAGTAAACAAATTTTCCTAATCTTTCTGTTCAAGCGCCATCTAC | 1.65
7 | GATGATTGTTCTCCCAGCTGATGAATTCCCCAACTCGAGTAAACAAATTTTCCTAATCTTTCTGTTCAAGCGCCATCTAC | 0.229
8 | GATGATTGTTCTCCCAGCTGATGAATTGTCCCCTTCGAGTAAACAAATTTTCCTAATCTTTCTGTTCAAGCGCCATCTAC | 0.353
9 | GATGATTGTTCTCCCAGCTGATGAATTCAGTGTTTCGAGTAAACAAATTTTCCTAATCTTTCTGTTCAAGCGCCATCTAC | 1.93
10 | GATGATTGTTCTCCCAGCTGATGAATTGTTCTGTTCGAGTAAACAAATTTTCCTAATCTTTCTGTTCAAGCGCCATCTAC | 0.45
11 | GATGATTGTTCTCCCAGCTGATGAATTAGGAGATTCGAGTAAACAAATTTTCCTAATCTTTCTGTTCAAGCGCCATCTAC | 0.355
12 | GATGATTGTTCTCCCAGCTGATGAATTCCAATCGTCGAGTAAACAAATTTTCCTAATCTTTCTGTTCAAGCGCCATCTAC | 0.404
13 | GATGATTGTTCTCCCAGCTGATGAATTAATTAGTTCGAGTAAACAAATTTTCCTAATCTTTCTGTTCAAGCGCCATCTAC | 2.32
14 | GATGATTGTTCTCCCAGCTGATGAATTAGTAAACTCGAGTAAACAAATTTTCCTAATCTTTCTGTTCAAGCGCCATCTAC | 1.08
15 | GATGATTGTTCTCCCAGCTGATGAATTTACAGAGTCGAGTAAACAAATTTTCCTAATCTTTCTGTTCAAGCGCCATCTAC | 0.324
16 | GATGATTGTTCTCCCAGCTGATGAATTTCTATTATCGAGTAAACAAATTTTCCTAATCTTTCTGTTCAAGCGCCATCTAC | 0.61
17 | GATGATTGTTCTCCCAGCTGATGAATTAGGAGTGTCGAGTAAACAAATTTTCCTAATCTTTCTGTTCAAGCGCCATCTAC | 0.967
18 | GATGATTGTTCTCCCAGCTGATGAATTCTTCGCATCGAGTAAACAAATTTTCCTAATCTTTCTGTTCAAGCGCCATCTAC | 0.708
19 | GATGATTGTTCTCCCAGCTGATGAATTCAGCGCGTCGAGTAAACAAATTTTCCTAATCTTTCTGTTCAAGCGCCATCTAC | 1.25
20 | GATGATTGTTCTCCCAGCTGATGAATTATCGTATTCGAGTAAACAAATTTTCCTAATCTTTCTGTTCAAGCGCCATCTAC | 1.35

Row | Sequence | binding signal (RPM ratio (pull-down/input))
21 | GATGATTGTTCTCCCAGCTGATGAATTCCCGACATCGAGTAAACAAATTTTCCTAATCTTTCTGTTCAAGCGCCATCTAC | 0.408
22 | GATGATTGTTCTCCCAGCTGATGAATTTCCTAGTTCGAGTAAACAAATTTTCCTAATCTTTCTGTTCAAGCGCCATCTAC | 0.288
23 | GATGATTGTTCTCCCAGCTGATGAATTGCATAACTCGAGTAAACAAATTTTCCTAATCTTTCTGTTCAAGCGCCATCTAC | 0.814
24 | GATGATTGTTCTCCCAGCTGATGAATTCTTACTGTCGAGTAAACAAATTTTCCTAATCTTTCTGTTCAAGCGCCATCTAC | 0.276
25 | GATGATTGTTCTCCCAGCTGATGAATTCACTGCTTCGAGTAAACAAATTTTCCTAATCTTTCTGTTCAAGCGCCATCTAC | 0.345
26 | GATGATTGTTCTCCCAGCTGATGAATTTGCGGATTCGAGTAAACAAATTTTCCTAATCTTTCTGTTCAAGCGCCATCTAC | 0.838
27 | GATGATTGTTCTCCCAGCTGATGAATTCCAGGTATCGAGTAAACAAATTTTCCTAATCTTTCTGTTCAAGCGCCATCTAC | 0.446
28 | GATGATTGTTCTCCCAGCTGATGAATTCGGTGCCTCGAGTAAACAAATTTTCCTAATCTTTCTGTTCAAGCGCCATCTAC | 1.08
29 | GATGATTGTTCTCCCAGCTGATGAATTCTGATACTCGAGTAAACAAATTTTCCTAATCTTTCTGTTCAAGCGCCATCTAC | 0.986
30 | GATGATTGTTCTCCCAGCTGATGAATTTAAGTGCTCGAGTAAACAAATTTTCCTAATCTTTCTGTTCAAGCGCCATCTAC | 0.628
31 | GATGATTGTTCTCCCAGCTGATGAATTTTGGTCTTCGAGTAAACAAATTTTCCTAATCTTTCTGTTCAAGCGCCATCTAC | 0.487
32 | GATGATTGTTCTCCCAGCTGATGAATTACGAGTTTCGAGTAAACAAATTTTCCTAATCTTTCTGTTCAAGCGCCATCTAC | 1.1
33 | GATGATTGTTCTCCCAGCTGATGAATTCATTCTGTCGAGTAAACAAATTTTCCTAATCTTTCTGTTCAAGCGCCATCTAC | 0.272
34 | GATGATTGTTCTCCCAGCTGATGAATTCGCGGCATCGAGTAAACAAATTTTCCTAATCTTTCTGTTCAAGCGCCATCTAC | 0.76
35 | GATGATTGTTCTCCCAGCTGATGAATTGTGTTCGTCGAGTAAACAAATTTTCCTAATCTTTCTGTTCAAGCGCCATCTAC | 1.65
36 | GATGATTGTTCTCCCAGCTGATGAATTTGCCATATCGAGTAAACAAATTTTCCTAATCTTTCTGTTCAAGCGCCATCTAC | 1.49
37 | GATGATTGTTCTCCCAGCTGATGAATTGTGACGGTCGAGTAAACAAATTTTCCTAATCTTTCTGTTCAAGCGCCATCTAC | 0.481
38 | GATGATTGTTCTCCCAGCTGATGAATTTTCGTGATCGAGTAAACAAATTTTCCTAATCTTTCTGTTCAAGCGCCATCTAC | 0.353
39 | GATGATTGTTCTCCCAGCTGATGAATTGACCCACTCGAGTAAACAAATTTTCCTAATCTTTCTGTTCAAGCGCCATCTAC | 0.352
40 | GATGATTGTTCTCCCAGCTGATGAATTGCAAGTTTCGAGTAAACAAATTTTCCTAATCTTTCTGTTCAAGCGCCATCTAC | 0.791
